The supplement of paper PMC12217912
Some of the results follow. Sequences were assembled here from the parent chain. Inactive controls read about 0.05.

B1: TEV protease; numbered along this chain (parent)
chain: MGESLFKGPRDYNPISSSICHLTNESDGHTTSLYGIGFGPFIITNKHLFRRNNGTLVVQSLHGVFKVKDTTTLQQHLVDGRDMIIIRMPKDFPPFPQKLKFREPQREERICLVTTNFQTKSMSSMVSDTSCTFPSGDGIFWKHWIQTKDGQCGSPLVSTRDGFIVGIHSASNFTNTNNYFTSVPKNFMELLTNQEAQQWVSGWRLNADSVLWGGHKVFMVKPEEPFQPVKEATQL

Variants of: B1
Test: raw area under fraction-flipped curve 0-4 h after induction (AUC4h, not background-subtracted), DNA-recorder readout of cleavage of the substrate (dimensionless); higher = more cleavage of the substrate by the protease variant
Conditions: temperature: 34 °C; time window: 0-4 h after rhamnose induction
Protocol: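 In vivo DNA recorder in E. coli TOP10(DE3) ΔrhaA at 34 °C. Each TEVp single-site mutant (parent TEVp 0) is paired with a single-site variant of the 7-mer TEVs (canonical ENLYFQ|S). The substrate sits between flexible linkers in a Bxb1-sfGFP-TEVs-SsrA fusion, so cleavage stabilises Bxb1 and speeds flipping of a recombination array, read by NGS. The value is the raw area under the fraction-flipped curve over 0-4 h after rhamnose induction (AUC4h), with ≥20 reads per time point. It is not background-subtracted; inactive controls average about 0.047.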
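Also: Bxb1 expression induced with 0.2% (w/v) L-rhamnose at OD600 near 0.5, cultures sampled hourly, flipped fraction per protease–substrate barcode pair counted by paired-end Illumina sequencing.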

Row | Variant | area with substrate ENLYFAS | area with substrate ENLYFES | area with substrate ENLYFHS | area with substrate ENLYFIS | area with substrate ENLYFKS | area with substrate ENLYFMS | area with substrate ENLYFNS | area with substrate ENLYFPS | area with substrate ENLYFRS | area with substrate ENLYFSS | area with substrate ENLYFTS | area with substrate ENLYFWS | area with substrate ENLYFYS | area with substrate ENLYFDS | area with substrate ENLYFFS | area with substrate ENLYFGS | area with substrate ENLYFLS | area with substrate ENLYFCS | area with substrate ENLYFVS
1 | E108D | 0.0522 | 0.0711 | 0.0612 | 0.0721 | 0.0659 | 0.0539 | 0.0642 | 0.0645 | 0.0506 | 0.0583 | 0.0651 | 0.0681 | 0.0524 | – | – | – | – | – | –
2 | E108M | 0.0583 | – | 0.0598 | 0.0606 | 0.0509 | 0.0619 | – | – | 0.0553 | 0.0386 | – | 0.0368 | 0.0679 | 0.0423 | 0.0666 | 0.0564 | 0.0529 | – | –
3 | R109E | 0.0633 | 0.0593 | 0.0728 | 0.0726 | – | 0.0642 | – | 0.0671 | – | 0.0595 | – | 0.0572 | – | – | 0.0529 | – | – | 0.0634 | 0.0481
4 | I110S | 0.075 | 0.0582 | – | 0.0484 | 0.037 | 0.0516 | 0.0568 | 0.0631 | 0.0558 | – | 0.0615 | – | 0.0457 | 0.0574 | 0.0795 | – | 0.0415 | – | –
5 | C111W | 0.0374 | 0.0585 | – | 0.0559 | – | – | 0.0494 | – | 0.0732 | – | – | – | – | – | – | – | – | – | –
6 | L112E | 0.0655 | – | – | 0.0578 | 0.0578 | 0.0569 | – | 0.0601 | 0.0524 | 0.0528 | 0.0446 | 0.0543 | 0.0481 | 0.0561 | – | – | 0.0558 | 0.0549 | –
7 | L112R | 0.0542 | – | 0.0463 | 0.0513 | – | 0.0759 | 0.0649 | 0.064 | 0.054 | – | 0.0565 | 0.0298 | – | – | 0.0566 | 0.0652 | 0.0835 | 0.0594 | 0.0559
8 | V113Q | 0.0518 | 0.0608 | – | 0.0619 | 0.0495 | 0.0613 | 0.0571 | 0.0551 | 0.0607 | 0.0493 | 0.0555 | – | – | – | 0.0522 | 0.0668 | 0.066 | – | 0.0533
9 | T114A | 0.0595 | 0.0669 | 0.0616 | 0.0351 | 0.0618 | 0.07 | 0.0592 | 0.0639 | 0.0527 | – | 0.0509 | 0.0777 | – | 0.0588 | – | – | 0.0605 | – | –
10 | T114W | 0.0547 | 0.0601 | – | 0.0707 | 0.0675 | 0.0545 | – | – | – | 0.106 | 0.0493 | 0.046 | – | 0.0586 | 0.0574 | – | – | 0.0388 | 0.06
11 | T115E | 0.0634 | – | 0.0702 | 0.0678 | – | 0.0413 | – | 0.0585 | 0.0671 | 0.0592 | 0.0569 | 0.0541 | – | 0.0479 | 0.0643 | – | – | 0.0707 | 0.058
12 | T115F | 0.0475 | – | 0.0566 | 0.052 | 0.0712 | 0.0692 | 0.0808 | 0.0535 | 0.0891 | 0.0587 | 0.068 | 0.0451 | 0.063 | 0.0582 | 0.0617 | – | – | 0.0614 | –
13 | F117R | 0.0553 | 0.0512 | – | 0.049 | – | 0.0703 | – | 0.0331 | – | – | 0.0526 | – | – | – | 0.065 | – | – | – | –
14 | Q118M | 0.0601 | 0.0569 | – | 0.0651 | – | 0.0549 | 0.104 | 0.059 | 0.0499 | – | 0.06 | – | – | – | – | – | – | – | –
15 | Q118V | 0.041 | – | – | 0.0577 | 0.0584 | 0.0649 | – | 0.0606 | 0.0691 | 0.0497 | – | – | – | – | 0.0695 | – | 0.0649 | 0.0563 | –
16 | M122T | 0.0668 | 0.0669 | – | 0.0611 | – | 0.0627 | 0.0654 | 0.0607 | 0.0519 | – | – | – | – | – | – | – | 0.0693 | 0.0892 | –
17 | S123E | 0.0651 | 0.0647 | 0.0649 | 0.0519 | 0.071 | 0.0566 | 0.0659 | 0.0688 | 0.0607 | 0.0622 | 0.0605 | 0.0579 | – | – | – | 0.0526 | – | 0.0503 | 0.0527
18 | S123G | 0.0479 | 0.0631 | 0.0752 | 0.0537 | 0.059 | 0.0719 | 0.0766 | 0.0661 | 0.0437 | 0.0742 | 0.0645 | 0.0619 | 0.0468 | – | 0.071 | – | 0.0698 | 0.0575 | –
19 | S124I | 0.0654 | 0.065 | – | – | 0.0563 | 0.0636 | 0.055 | 0.0491 | – | 0.066 | 0.0701 | 0.0617 | 0.0683 | – | 0.0682 | – | 0.0557 | – | –
20 | S124T | 0.0469 | – | – | 0.0624 | 0.0509 | 0.0671 | – | 0.0483 | 0.0609 | – | – | – | 0.0438 | 0.0898 | 0.0644 | 0.0615 | – | 0.0563 | 0.0874
21 | M125E | 0.0485 | 0.0725 | 0.081 | 0.0596 | – | – | – | 0.0725 | – | 0.0827 | – | 0.0601 | 0.0575 | – | 0.0555 | 0.0488 | 0.0612 | 0.0603 | –
22 | M125R | 0.086 | – | 0.0509 | 0.0458 | 0.0815 | 0.0529 | 0.0652 | 0.0619 | 0.0657 | 0.0609 | 0.0698 | 0.0558 | 0.057 | 0.0491 | 0.0703 | – | 0.0946 | 0.0626 | 0.0663
23 | V126E | 0.0557 | 0.0618 | – | 0.035 | – | 0.0701 | 0.0597 | 0.0445 | 0.0855 | – | 0.0669 | – | 0.0789 | 0.0622 | 0.0567 | – | – | – | –
24 | S127M | 0.0655 | 0.0701 | 0.0545 | 0.0596 | 0.067 | 0.0555 | 0.0662 | 0.063 | 0.0679 | – | 0.058 | 0.0632 | 0.0536 | 0.0499 | 0.0734 | – | – | – | 0.0543
25 | T129F | 0.0473 | – | – | 0.0548 | 0.0614 | 0.0641 | – | – | 0.0645 | – | 0.044 | 0.0682 | – | – | – | 0.0754 | – | 0.06 | –
26 | T129V | 0.0628 | 0.0583 | 0.0496 | 0.0649 | 0.066 | 0.0769 | 0.0711 | 0.0582 | 0.0719 | 0.0647 | 0.0531 | – | – | 0.0752 | 0.0677 | – | – | 0.0786 | –
27 | S130D | 0.067 | 0.0661 | – | 0.0576 | 0.053 | – | 0.0726 | 0.07 | – | 0.049 | 0.0582 | 0.0707 | 0.0636 | – | – | – | 0.054 | 0.048 | 0.052
28 | S130P | 0.0416 | 0.0406 | 0.0418 | 0.0541 | – | 0.0465 | – | 0.0487 | 0.0401 | – | 0.0568 | – | – | – | – | 0.0439 | – | 0.039 | –
